Measured values published in the supplement of paper PMC10369915.
The list shows a part of the results. Rule as the data show it: active = 3.2 or more and inactive = the rest. Most of these values are background signal.

How the values were obtained:
Assay in all cases: enrichment score (SH2-bound / input frequency) (ratio); bacterial display of known human phosphotyrosine sites (pTyr-Var adds point mutants) read by sequencing; higher = stronger binding; tyrosines were phosphorylated by kinases first
Details in all cases: peptide library: Human pTyr
SHP2 C-SH2 domain E139D = target: SHP2 C-SH2 domain E139D
[1] = target: SHP2 C-SH2 domain wild-type
SHP2 N-SH2 domain L43F = target: SHP2 N-SH2 domain L43F
SHP2 N-SH2 domain T42A = target: SHP2 N-SH2 domain T42A
SHP2 N-SH2 domain T52S = target: SHP2 N-SH2 domain T52S
[2] = target: SHP2 N-SH2 domain wild-type

Measured: enrichment score
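Also: displayed peptides selected on beads carrying the immobilized SH2 domain, with library peptides lacking any tyrosine serving as negative controls.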

DQLNDNEYTKFIPPN [PDP1_HUMAN_381]
inactive: SHP2 C-SH2 domain E139D 0.624 | [1] 0.471 | SHP2 N-SH2 domain L43F 0.666 | SHP2 N-SH2 domain T42A 0.716 | SHP2 N-SH2 domain T52S 0.603 | [2] 0.777

SEDDEDCYGNADNLL [PDPK1_HUMAN_373_YA]
inactive: SHP2 C-SH2 domain E139D 1.14 | [1] 0.975 | SHP2 N-SH2 domain L43F 0.927 | SHP2 N-SH2 domain T42A 1.01 | SHP2 N-SH2 domain T52S 0.996 | [2] 0.975

ARTTSQLYDAVPIQS [PDPK1_HUMAN_9]
inactive: SHP2 C-SH2 domain E139D 0.834 | [1] 0.702 | SHP2 N-SH2 domain L43F 0.735 | SHP2 N-SH2 domain T42A 1.25 | SHP2 N-SH2 domain T52S 0.858 | [2] 0.825

GAARAGVYNLTKSLA [PECR_HUMAN_179]
inactive: SHP2 C-SH2 domain E139D 0.785 | [1] 0.64 | SHP2 N-SH2 domain L43F 0.759 | SHP2 N-SH2 domain T42A 0.632 | SHP2 N-SH2 domain T52S 0.723 | [2] 0.755

EEEDEEEYFEEEEEE [PELP1_HUMAN_920]
inactive: SHP2 C-SH2 domain E139D 1.37 | [1] 1.19 | SHP2 N-SH2 domain L43F 1.14 | SHP2 N-SH2 domain T42A 0.997 | SHP2 N-SH2 domain T52S 1.17 | [2] 1.73

NYTTDFIYQLYSEEG [PFKAP_HUMAN_651]
inactive: SHP2 C-SH2 domain E139D 1.82 | [1] 1.24 | SHP2 N-SH2 domain L43F 1.26 | SHP2 N-SH2 domain T42A 1.07 | SHP2 N-SH2 domain T52S 1.23 | [2] 1.39

ISPDGHEYIAVDPMQ [PGFRA_HUMAN_572_YA]
inactive: SHP2 C-SH2 domain E139D 0.844 | [1] 0.59 | SHP2 N-SH2 domain L43F 0.591 | SHP2 N-SH2 domain T42A 0.694 | SHP2 N-SH2 domain T52S 0.522 | [2] 0.534

SFENNGDYMDMKQAD [PGFRA_HUMAN_731]
inactive: SHP2 C-SH2 domain E139D 0.776 | [1] 0.93 | SHP2 N-SH2 domain L43F 0.947 | SHP2 N-SH2 domain T42A 0.843 | SHP2 N-SH2 domain T52S 0.811 | [2] 0.777

KMQDIPIYANVHKTK [ARAP2_HUMAN_77]
inactive: SHP2 C-SH2 domain E139D 1.16 | [1] 1.39 | SHP2 N-SH2 domain L43F 1.6 | SHP2 N-SH2 domain T42A 1.06 | SHP2 N-SH2 domain T52S 1.55 | [2] 1.76

ADIESSNYMAPYDNY [PGFRB_HUMAN_771]
inactive: SHP2 C-SH2 domain E139D 0.475 | [1] 0.426 | SHP2 N-SH2 domain L43F 0.502 | SHP2 N-SH2 domain T42A 0.507 | SHP2 N-SH2 domain T52S 0.488 | [2] 0.398

SSNYMAPYDNYVPSA [PGFRB_HUMAN_775]
inactive: SHP2 C-SH2 domain E139D 0.743 | [1] 0.502 | SHP2 N-SH2 domain L43F 0.583 | SHP2 N-SH2 domain T42A 0.592 | SHP2 N-SH2 domain T52S 0.519 | [2] 0.616

YMAPYDNYVPSAPER [PGFRB_HUMAN_778]
inactive: SHP2 C-SH2 domain E139D 0.714 | [1] 0.601 | SHP2 N-SH2 domain L43F 0.561 | SHP2 N-SH2 domain T42A 0.693 | SHP2 N-SH2 domain T52S 0.708 | [2] 0.772

AMAPADNYVPSAPER [PGFRB_HUMAN_778_YA]
inactive: SHP2 C-SH2 domain E139D 0.66 | [1] 0.601 | SHP2 N-SH2 domain L43F 0.65 | SHP2 N-SH2 domain T42A 0.791 | SHP2 N-SH2 domain T52S 0.729 | [2] 0.69

GEGAKKKYQQVDEEF [PGFRB_HUMAN_970_YA]
inactive: SHP2 C-SH2 domain E139D 1.02 | [1] 1.07 | SHP2 N-SH2 domain L43F 0.935 | SHP2 N-SH2 domain T42A 1.02 | SHP2 N-SH2 domain T52S 1.06 | [2] 1.46

TLTCMQHYEEVQTSA [PHAG1_HUMAN_105]
inactive: SHP2 C-SH2 domain E139D 1.37 | [1] 1.31 | SHP2 N-SH2 domain L43F 1.36 | SHP2 N-SH2 domain T42A 1.21 | SHP2 N-SH2 domain T52S 1.24 | [2] 1.94

NMVEDCLYETVKEIK [PHAG1_HUMAN_181]
inactive: SHP2 C-SH2 domain E139D 1.41 | [1] 1.01 | SHP2 N-SH2 domain L43F 0.948 | SHP2 N-SH2 domain T42A 1.21 | SHP2 N-SH2 domain T52S 1.07 | [2] 1.61

EEEISAMYSSVNKPG [PHAG1_HUMAN_317]
inactive: SHP2 C-SH2 domain E139D 0.68 | [1] 0.789 | SHP2 N-SH2 domain L43F 0.672 | SHP2 N-SH2 domain T42A 0.676 | SHP2 N-SH2 domain T52S 0.586 | [2] 0.78

ALEEDVIYDDVPCES [ARGAL_HUMAN_131]
inactive: SHP2 C-SH2 domain E139D 1.18 | [1] 1.05 | SHP2 N-SH2 domain L43F 1.04 | SHP2 N-SH2 domain T42A 1.05 | SHP2 N-SH2 domain T52S 0.994 | [2] 1.77
